The record followed here is PubChem BioAssay AID463173 (ICCB-Longwood Screening Facility, Harvard Medical School, 2010).

Screen size: about 52,000 compounds; about 4,300 (8.3%) were called active. Cut-off read from the data, not from the text of the source: active = survival mostly below about 52% (no sharp cut-off); inactive = mostly above about 56%. This is one part of the list.

The test has as its system DeltatarO mutant. The test is described as follows: S. aureus survival, RN4220 and DeltatarO strains – OD600, teichoic acid synthesis inhibitors, primary screen (AID 463173). The following applies: S. aureus RN4220 wild type/DeltatarO growth, OD600, 18 h, stronger effect = lower value, screened at 18.75 µg/mL (by protocol).
As for `CCc1nn2c(=O)cc(COC(=O)c3cccc(NC(=O)c4cccs4)c3)nc2s1`, the survival is inactive: 94%.

On to `CCc1cccc(C)c1NC(=O)Cn1cnc2c1c(=O)n(C)c(=O)n2C`, for which the survival was inactive: 74%.

As to `Cc1ccccc1-n1nc(CO)c(C(=O)NCc2cccnc2)n1`, the survival was inactive: 92%.

On to `COc1cc(C2NC(=O)c3c(sc4c3CCN(C)C4)N2)cc(Br)c1OC(=O)c1ccc(C)cc1` (configuration not stated), for which the survival is inactive: 68%.

Take `COCCNC(=O)Nc1cc(C(=O)NCc2ccc(C(C)C)cc2)ccc1N1CCCC1`: the survival is inactive: 76%.

Regarding `CCOC(=O)C1CCN(C(c2ccc(SC)cc2)c2c(O)cc(C)n(Cc3ccco3)c2=O)CC1` (configuration not stated), the survival was inactive: 124%.

In the case of `COC(=O)c1cc2sc(Cl)cc2n1Cc1c(C)cc(C)cc1C`, the survival was inactive: 98%.

For `CCn1c2ccccc2c2cc(NC(=O)COc3ccc(C)cc3C)ccc21`, the survival is active: -5%.

As to `COc1ccc(-c2c(C)c3ccc(O)c(CN4CCOCC4)c3oc2=O)cc1`, the survival was inactive: 90%.

Take `CCCCNC(=O)C1CCN(S(=O)(=O)CCC)CC1`: the survival was inactive: 71%.

Regarding `COc1ccc(OC)c(CNC(=O)c2ccc(C)c(NC(=O)c3nsc4ccccc34)c2)c1`, the survival is inactive: 75%.

Regarding `Cc1ccc(Cn2c(CNS(=O)(=O)c3cccc([N+](=O)[O-])c3)nc3cccnc32)cc1`, the survival was inactive: 128%.

As to `COc1ccc(-c2cc(C)no2)cc1S(=O)(=O)Nc1c(C)cc(C)cc1C`, the survival is inactive: 89%.

On to `CCOc1ccc(OCC)c(NS(=O)(=O)c2cc(-c3cnc(C)o3)ccc2OC)c1`, for which the survival is inactive: 88%.

Consider `CCOC(=O)CSC1=Nc2ccccc2C2=NC(CCC(=O)NCc3ccc(F)cc3)C(=O)N12` (configuration not stated), for which the survival is inactive: 69%.

For the molecule `O=C(NCc1cccc(F)c1)C1CCCN(C(=O)N2CCOc3ccccc32)C1` (configuration not stated), the survival is inactive: 86%.

With `O=c1nc(N2CCCC2)nc(N2CCCC2)[nH]1`, the survival was inactive: 78%.

Consider `CC1CN(C(=O)N2CCC(C(=O)NCc3cccs3)CC2)c2cc(Cl)ccc2O1` (configuration not stated), for which the survival is inactive: 63%.

`Cc1ccc(C)c(NC(=O)C2CCCN(c3nc4ccccc4s3)C2)c1` (configuration not stated): the survival is inactive: 65%.

On to `CCN1CCN(C(C)C(=O)N(C(C)C)C(C)C)CC1` (configuration not stated), for which the survival was inactive: 107%.

As for `COC(=O)c1c(NC(=O)CCCOc2ccc(C(C)(C)C)cc2)sc2c1C(C(=O)OC)CC2` (configuration not stated), the survival was active: 3%.

As for `CCc1ccc(CNC(=O)C(C)n2ccc3cc(S(=O)(=O)N4CCCCCC4)ccc32)cc1` (configuration not stated), the survival was inactive: 94%.

Regarding `COc1ccc(N2CCN(C(=O)CCn3c(=O)[nH]c4cc(OC)c(OC)cc4c3=O)CC2)cc1`, the survival was inactive: 82%.

For the molecule `Cc1ccc(CC/C=N/NC(N)=S)o1`, the survival was inactive: 75%.

Take `COc1cccc(C(=O)NCCc2csc(-c3ccc(Cl)cc3)n2)c1`: the survival is inactive: 89%.

In the case of `Cc1cccc(NC(=O)CCS(=O)(=O)c2cccc3nsnc23)c1C`, the survival was inactive: 70%.

Regarding `COc1ccccc1N1CCN(c2ncnc3onc(-c4ccc(F)cc4)c23)CC1`, the survival was inactive: 75%.

For the molecule `Cc1ccc(NC(=O)C2CCN(S(=O)(=O)c3ccc4[nH]c5c(c4c3)CCCCC5)CC2)cc1`, the survival was inactive: 78%.

Regarding `CCn1c(=O)c2sccc2n2c(CCC(=O)NCc3ccc(Cl)cc3)nnc12`, the survival is inactive: 86%.

On to `CCS(=O)(=O)c1ccccc1C(=O)N1CCN(c2nc3ccccc3s2)CC1`, for which the survival was inactive: 55%.

Consider `N#Cc1ccc(CSc2nnc(-c3ccc(Br)cc3)o2)cc1`, for which the survival was inactive: 87%.

As to `CCOC(=O)C1CCN(C(=O)Cn2ncc3c4ccccc4n(C)c3c2=O)CC1`, the survival was inactive: 71%.

Take `COc1ccc(CNC(=O)CCCN2C(=O)c3cccnc3Oc3ccc(Cl)cc32)cc1`: the survival is inactive: 78%.

On to `Cc1oc(-c2cccc(Cl)c2)nc1CSCC(=O)NCc1ccccc1Cl`, for which the survival is active: 0%.

In the case of `CCNC(=O)C1CCN(Cc2cc3ccccc3n2Cc2ccc(C)cc2)CC1`, the survival was inactive: 82%.

On to `CCOC(=O)c1c(C)oc2nc(C)nc(N3CCN(c4ccc(OC)cc4)CC3)c12`, for which the survival was inactive: 81%.

Take `CCOc1ccccc1CNC(=O)CCCN1C(=O)c2cccnc2Oc2ccc(Cl)cc21`: the survival was inactive: 83%.

In the case of `COc1ccccc1Cn1c(SCC(=O)C(C)(C)C)nc2ccccc2c1=O`, the survival was inactive: 83%.

Take `Clc1cccc(CSc2ccc(-c3cccs3)nn2)c1`: the survival is inactive: 116%.

For `COC(=O)CN1C(C(=O)c2ccccc2)=C(OC(=O)c2ccc(C)cc2)c2ccccc2S1(=O)=O`, the survival is inactive: 43%.

For `O=C(c1cccn1-c1nnc(N2CCCCC2)s1)N1CCN(c2ccccc2)CC1`, the survival is active: 0%.

On to `O=C(Cn1ncc2c3ccccc3n(Cc3ccccc3F)c2c1=O)NCCCc1ccccc1`, for which the survival was inactive: 81%.

As to `CCOc1ccc2nc(NC(=O)c3ccccc3)sc2c1`, the survival was active: 41%.

Regarding `COC(=O)c1ccccc1NC(=O)CSc1nc2nc(C)cc(C)n2n1`, the survival was inactive: 58%.

For the molecule `Cc1ccc(C(=O)Nc2ccc(Br)cc2)cc1S(=O)(=O)NCc1ccccc1`, the survival was inactive: 83%.

Take `CCOc1ccccc1C(=O)N(Cc1ccco1)Cc1ccccc1F`: the survival is inactive: 78%.

Consider `Cc1cccc(NS(=O)(=O)c2nnc(NC(=O)c3cccc(C)c3)s2)c1`, for which the survival was inactive: 61%.

On to `Cc1ccc(-n2c(SCC(=O)Nc3ccc4c(c3)OCCO4)nc3c([nH]c4ccccc43)c2=O)cc1`, for which the survival was inactive: 108%.

`COCCNC(=O)c1ccc(-c2nc(CN3CCc4ccccc43)c(C)o2)cc1`: the survival is inactive: 72%.

`Cc1ccc(OCC(=O)Nc2sc3c(c2C(N)=O)CCCC3)c(C(C)(C)C)c1`: the survival is inactive: 65%.

For the molecule `Cc1csc2nc(COC(=O)c3ccc(NC(=O)C(C)C)cc3)cc(=O)n12`, the survival is inactive: 108%.

`CC(C)OCCCNC(=O)CN1C(=O)COc2ccc(S(=O)(=O)N3CCOCC3)cc21`: the survival is inactive: 79%.

In the case of `COc1ccccc1NC(=O)c1ncoc1-c1ccco1`, the survival was inactive: 61%.

In the case of `Cc1cccc(NC(=O)c2cc3c(=O)n4ccccc4nc3n2C)c1C`, the survival is inactive: 58%.

In the case of `CC(C)CCNc1ccc(-c2ccc(Cl)cc2)nn1`, the survival was inactive: 81%.

In the case of `COc1ccc(C)cc1NC(=O)N1CCN(c2nnc(C)c3c(C)n(-c4ccccc4)nc23)CC1`, the survival is inactive: 73%.

For the molecule `O=C(Cn1c(=O)n(CCCS(=O)(=O)C2CCCCC2)c(=O)c2ccccc21)Nc1ccc(F)c(Cl)c1`, the survival was inactive: 82%.

Consider `O=C(c1cnc(N2CCCCC2)c2ccccc12)N1CCN(c2cccc(Cl)c2)CC1`, for which the survival is inactive: 83%.

As to `COCCCNC(=O)c1nn(-c2ccc(C)cc2)c(=O)n(C)c1=O`, the survival was inactive: 84%.

On to `Cc1cc(C)cc(NC(=O)CCCn2c(=O)c3cccn3c3ccccc32)c1`, for which the survival is inactive: 59%.

Take `C=CCN1C(=O)CN=C1NCc1ccccc1`: the survival is inactive: 82%.

Take `COc1ccc(-c2nc3ccccc3s2)cc1NC(=O)COc1cccc(C)c1`: the survival was active: 16%.

`O=c1c(N2CCCCC2)csc2ccc(F)cc12`: the survival was inactive: 89%.

On to `CCc1nc2ccc(C(=O)NCc3cccc(Br)c3)cc2nc1CC`, for which the survival is inactive: 101%.

`CCc1ccc(S(=O)(=O)Nc2cc3c(cc2N2CCOCC2)n(C)c(=O)c(=O)n3C)cc1`: the survival is active: 6%.

As to `CCOc1ccc(NC(=O)C(=O)NCCc2ccccc2)cc1`, the survival is inactive: 67%.

For `O=C(NC1CC(=O)N(c2ccccc2)C1)c1ccco1` (configuration not stated), the survival was inactive: 68%.

`Cc1ccc(C(=O)N2CCc3cc(CNC(=O)CCc4ccccc4)ccc32)cc1`: the survival was inactive: 117%.

Regarding `COc1cccc(C(=O)NCCc2csc(-c3cccc(F)c3)n2)c1OC`, the survival is inactive: 75%.

For the molecule `CCc1cccc(NC(=O)CN(c2ccc(C)cc2)S(=O)(=O)c2cccs2)c1`, the survival was inactive: 64%.

As for `O=C(Nc1ccc(F)cc1)Nc1ccc2snnc2c1`, the survival is active: 19%.

For `CCc1cccc(NC(=O)Cn2ncc3c([nH]c4ccc(C)cc43)c2=O)c1`, the survival was inactive: 85%.

`CCOc1ccccc1NC(=O)CCc1c(C)nc2c3cccnc3nn2c1C`: the survival is inactive: 78%.

Consider `CCCCNc1sc(S(=O)(=O)CCC)nc1S(=O)(=O)c1ccc(C)cc1`, for which the survival was inactive: 86%.

For the molecule `COc1ccc(Cl)cc1C1CC(=O)Nc2cc3c(cc21)OCCO3` (configuration not stated), the survival was inactive: 102%.

`CC1=C/C(=N/OC(=O)c2ccccc2)C=CC1=O`: the survival is inactive: 71%.

With `Cc1ccc(CN2C(=O)c3ccccc3Sc3ccc(C(=O)NC4CCCC4)cc32)cc1`, the survival is inactive: 95%.

On to `CCNC(=O)c1c2c(nc3ccccc13)C(=O)N(C1CCCCC1)C2`, for which the survival was inactive: 106%.

Consider `O=C(Cn1c(SCc2ccccc2F)nc2cccnc21)Nc1ccc(F)c(Cl)c1`, for which the survival was inactive: 73%.

Regarding `CCN(CC)CCn1c(-c2ccccc2)csc1=Nc1ccccc1`, the survival was active: 42%.

In the case of `Nc1nonc1C(=O)NCCNCc1cccc(Cl)c1Cl`, the survival was inactive: 65%.

In the case of `CCCCN(CC)CCCNC(=O)C1CCCN(c2ncnc3c2nc2n3CCCCC2)C1` (configuration not stated), the survival was inactive: 99%.

Take `COc1ccc(NC(=O)Cn2c(=O)n(Cc3ccccc3Cl)c(=O)c3cc(OC)c(OC)cc32)cc1OC`: the survival was inactive: 77%.

On to `Cc1ccc(OCCn2c(-c3ccc(Br)cc3)nc3ccccc3c2=O)cc1C`, for which the survival is inactive: 68%.

Turning to `O=C1CC(c2cccc(O)c2)c2cc3c(cc2N1)OCO3` (configuration not stated), the survival was inactive: 87%.

As for `COc1ccc(-c2onc(C)c2C)cc1S(=O)(=O)N1CCN(c2ccc(Cl)cc2)CC1`, the survival was inactive: 64%.

With `O=C(CSc1nc2c([nH]c3ccccc32)c(=O)n1-c1ccccc1)N1CCOCC1`, the survival was inactive: 72%.

As for `CC(C)OC(=O)c1c(NC(=O)COc2cccc(Br)c2)sc2c1CCCC2`, the survival is inactive: 107%.

Regarding `CC(CNC(=O)C1CCN(S(=O)(=O)c2ccc3c(ccn3C)c2)CC1)c1ccccc1` (configuration not stated), the survival is inactive: 100%.

Turning to `O=C(CN1CCC(c2nc3ccccc3s2)CC1)N1CCCCC1`, the survival was inactive: 91%.

For `Cc1ccc(CCNC(=O)c2c(C)oc3nc(C)nc(N4CCOCC4)c23)cc1`, the survival is inactive: 106%.

`CCN(CCCNC(=O)c1cc(Nc2ccc(OC)cc2OC)nc2ccccc12)c1cccc(C)c1`: the survival is inactive: 86%.
